# Reference: a collection of fitness landscapes (doi:10.1016/j.celrep.2020.107928)
# Whole data set: some 81,000 sequences, median “one-hybrid fitness for binding parS DNA” near -0.17, cut for the highest 2% near 0.51. This is one part of the list.
# B1: Caulobacter ParB omega fusion; a variant is named by its letters at X, in order, B8GW30 (parent)
# chain: MESVVVGEPGMSEGRRGLGRGLSALLGEVDAAPAQAPGEQLGGSREAPIEILQRNPDQPRRTFREEDLEDLSNSIREKGVLQPILVRPSPDTAGEYQIVAGERAWRAAQRAGLKTVPIMVRELDDLAVLEIGIIENVQRADLNVLEEALSYKVLMEKFERTQENIAQTIGKSXSHVANXMRLLXLPDEVQSYLVSGELTAXHARAIAAAADPVALAKQIIEGGLSVRETEALARKAPNLSAGKSKGGRPPRVKDTDTQALESDLSSVLGLDVSIDHRGSTGTLTITYATLEQLDDLCNRLTRGI
# Variants of: B1
# Test: one-hybrid fitness for binding parS DNA (scaled: cognate 1, non-cognate 0); higher = stronger binding
# Conditions: with parS DNA site
# Procedure, shortened: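 Caulobacter ParB libraries with four specificity codons randomised were screened by bacterial one-hybrid selection in the E. coli USO strain, using a HIS3 reporter whose site lies 19 bp from the promoter. Selection ran for 48 hours at 37°C on M9 lacking histidine, with 0.1 mM IPTG and 5 mM 3-AT. Plasmids were Illumina-sequenced before and after selection, three replicate libraries were pooled, and variants with under 10 reads were dropped. Fitness is the log change in each variant's read ratio to wild type, rescaled against the cognate and non-cognate sites.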
row,Variant,one-hybrid fitness for binding parS DNA
1,HYAV,≤ 0.2
2,DMLS,≤ 0.2
3,HSSW,≤ 0.2
4,RQYI,≤ 0.2
5,NCEW,≤ 0.2
6,AQQK,≤ 0.2
7,PEQV,≤ 0.2
8,HEWG,≤ 0.2
9,TGDY,≤ 0.2
10,RFAE,≤ 0.2
11,YVST,≤ 0.2
12,PVYW,≤ 0.2
13,KQAV,≤ 0.2
14,TTKL,≤ 0.2
15,QSVI,≤ 0.2
16,LIPV,≤ 0.2
17,DNHP,≤ 0.2
18,TRGP,≤ 0.2
19,VRCK,≤ 0.2
20,RYER,≤ 0.2
21,SCDA,≤ 0.2
22,QMMR,≤ 0.2
23,LKPG,≤ 0.2
24,HELY,≤ 0.2
25,GPKM,≤ 0.2
26,AKSS,≤ 0.2

row,Variant,one-hybrid fitness for binding parS DNA
1,GETG,≤ 0.2
2,FWPP,≤ 0.2
3,EDQY,0.399
4,VWLG,≤ 0.2
5,QYVS,≤ 0.2
6,VVRT,≤ 0.2
7,TVFC,≤ 0.2
8,STYK,≤ 0.2
9,KGPC,≤ 0.2
10,MAAF,≤ 0.2
11,EYNG,≤ 0.2
12,IRIE,≤ 0.2
13,MTDI,≤ 0.2
14,ETLI,≤ 0.2
15,QNFS,≤ 0.2
16,APVC,≤ 0.2
17,HDMG,≤ 0.2
18,LILC,≤ 0.2
19,WPGL,≤ 0.2
20,LAKA,≤ 0.2
21,FVNR,≤ 0.2
22,GSYG,≤ 0.2
23,NYLT,≤ 0.2
24,KMNS,≤ 0.2
25,IYVA,≤ 0.2
26,DPSY,≤ 0.2

row,Variant,one-hybrid fitness for binding parS DNA
1,FITI,≤ 0.2
2,HPEI,≤ 0.2
3,YCVC,≤ 0.2
4,MPHF,≤ 0.2
5,GPPW,≤ 0.2
6,NYMV,≤ 0.2
7,QDTV,≤ 0.2
8,WDFS,≤ 0.2
9,RQPI,≤ 0.2
10,PICT,≤ 0.2
11,QYEL,≤ 0.2
12,PEIA,≤ 0.2
13,KLTS,≤ 0.2
14,NQSM,≤ 0.2
15,SSLL,≤ 0.2
16,HTWA,≤ 0.2
17,CPRM,≤ 0.2
18,GRQR,≤ 0.2
19,RRTV,≤ 0.2
20,FGTG,≤ 0.2
21,TQHT,≤ 0.2
22,ADIL,≤ 0.2
23,MSNT,≤ 0.2
24,CKHA,≤ 0.2
25,PVCL,≤ 0.2
26,NHLR,≤ 0.2

row,Variant,one-hybrid fitness for binding parS DNA
1,YIWV,≤ 0.2
2,FPYG,≤ 0.2
3,QNMR,≤ 0.2
4,GHKV,≤ 0.2
5,GARV,≤ 0.2
6,GRMS,≤ 0.2
7,SKPK,≤ 0.2
8,RCDS,1.02
9,LGLW,≤ 0.2
10,HFER,≤ 0.2
11,TYDM,≤ 0.2
12,LRAW,≤ 0.2
13,CYVG,≤ 0.2
14,ASGV,≤ 0.2
15,SSRV,≤ 0.2
16,NAKG,≤ 0.2
17,LTNW,≤ 0.2
18,LTDR,≤ 0.2
19,LSID,≤ 0.2
20,KRSS,≤ 0.2
21,DMYT,≤ 0.2
22,LEAP,≤ 0.2
23,YDSI,≤ 0.2
24,ADPD,≤ 0.2
25,TTNQ,≤ 0.2
26,TAQG,≤ 0.2

row,Variant,one-hybrid fitness for binding parS DNA
1,HIDR,≤ 0.2
2,AAST,≤ 0.2
3,PFAK,≤ 0.2
4,KWKT,≤ 0.2
5,CRTM,≤ 0.2
6,WPLL,≤ 0.2
7,EKFF,≤ 0.2
8,SEHY,≤ 0.2
9,MRPC,≤ 0.2
10,IMHR,≤ 0.2
11,GDLG,≤ 0.2
12,IIAL,≤ 0.2
13,YWVC,≤ 0.2
14,GKNA,≤ 0.2
15,FGHR,≤ 0.2
16,RLPN,0.225
17,KRVH,≤ 0.2
18,REGF,≤ 0.2
19,SHQL,≤ 0.2
20,QCYV,≤ 0.2
21,WISS,≤ 0.2
22,YRPV,≤ 0.2
23,YGYG,≤ 0.2
24,NEVW,≤ 0.2
25,NHVT,≤ 0.2
26,LHKA,≤ 0.2

row,Variant,one-hybrid fitness for binding parS DNA
1,WHTC,≤ 0.2
2,QKRT,≤ 0.2
3,YVAS,≤ 0.2
4,RKLS,0.876
5,QGCS,≤ 0.2
6,LYVY,≤ 0.2
7,MLKV,≤ 0.2
8,WCLG,≤ 0.2
9,KVMW,≤ 0.2
10,AQFK,≤ 0.2
11,QLNQ,≤ 0.2
12,QCSD,≤ 0.2
13,QWER,≤ 0.2
14,HYDL,≤ 0.2
15,NDNV,≤ 0.2
16,ANCF,≤ 0.2
17,ENWG,≤ 0.2
18,STFF,≤ 0.2
19,NDHS,≤ 0.2
20,HRFE,≤ 0.2
21,RHSI,≤ 0.2
22,PMVT,≤ 0.2
23,FCDG,≤ 0.2
